{
  "source": "the supplement of paper PMC4466236",
  "note": "Whole data set: some 33,000 sequences, median “E-score (dimensionless, -0.5 to 0.5)” near -0.058, cut for the highest 2% near 0.35. Some of the results follow.",
  "data": [
    {"system": "MvaT", "assay": "PBM 8-mer E-score (mean of HK and ME arrays) (E-score (dimensionless, -0.5 to 0.5)); higher = stronger relative binding preference; most listed sequences are background and not binding sites", "method_in_brief": "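Reported values are rank-based E-scores, taken as the mean of two universal arrays and parsed with a custom script. Each 8-mer score falls between -0.5 and 0.5. The arrays, ME and HK, were double-stranded 60-mers with a constant 25-mer primer region and a variable 35-mer region covering all 8-mers. They were probed, by an earlier protocol, with full-length P. aeruginosa MvaT carrying an N-terminal glutathione S-transferase fusion.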", "values": [
      {"sequence": "TATCAAGA", "PBM 8-mer E-score": 0.117},
      {"sequence": "AACGCTTG", "PBM 8-mer E-score": -0.0287},
      {"sequence": "ACCTGATC", "PBM 8-mer E-score": -0.266},
      {"sequence": "AACGATGA", "PBM 8-mer E-score": -0.0169},
      {"sequence": "ACCCATAT", "PBM 8-mer E-score": 0.154},
      {"sequence": "GTTTACGA", "PBM 8-mer E-score": -0.0306},
      {"sequence": "ACTCGGAG", "PBM 8-mer E-score": -0.0597},
      {"sequence": "CAGGCGCG", "PBM 8-mer E-score": -0.265},
      {"sequence": "CCGCTCCG", "PBM 8-mer E-score": -0.172},
      {"sequence": "CGAGAGCG", "PBM 8-mer E-score": -0.228},
      {"sequence": "TACTATAA", "PBM 8-mer E-score": 0.387},
      {"sequence": "CAGCAACC", "PBM 8-mer E-score": -0.14},
      {"sequence": "ACCGATTA", "PBM 8-mer E-score": 0.229},
      {"sequence": "AATAGGTC", "PBM 8-mer E-score": -0.0296},
      {"sequence": "ACTCGCTA", "PBM 8-mer E-score": -0.0529},
      {"sequence": "AATACCTG", "PBM 8-mer E-score": 0.161},
      {"sequence": "CCTCCGAA", "PBM 8-mer E-score": -0.241},
      {"sequence": "GAACAGGC", "PBM 8-mer E-score": -0.147},
      {"sequence": "AATAGCGA", "PBM 8-mer E-score": 0.174},
      {"sequence": "AAACCACT", "PBM 8-mer E-score": -0.0232},
      {"sequence": "GCCCGGAC", "PBM 8-mer E-score": -0.25},
      {"sequence": "CTGATTGA", "PBM 8-mer E-score": -0.0328},
      {"sequence": "GCACTTCC", "PBM 8-mer E-score": 0.0843},
      {"sequence": "TAGGCAAA", "PBM 8-mer E-score": -0.0599},
      {"sequence": "AAAGGCGG", "PBM 8-mer E-score": -0.0871},
      {"sequence": "ATTCCCAC", "PBM 8-mer E-score": 0.0666},
      {"sequence": "AATGAGGC", "PBM 8-mer E-score": -0.0425},
      {"sequence": "GCAATCAC", "PBM 8-mer E-score": -0.172},
      {"sequence": "CCGACAAC", "PBM 8-mer E-score": 0.00549},
      {"sequence": "AATGAGAA", "PBM 8-mer E-score": -0.00156},
      {"sequence": "CCTGTACC", "PBM 8-mer E-score": -0.168},
      {"sequence": "TATAACAA", "PBM 8-mer E-score": 0.355},
      {"sequence": "ATTTCGTC", "PBM 8-mer E-score": 0.0525},
      {"sequence": "CCCGAGGG", "PBM 8-mer E-score": -0.257},
      {"sequence": "GTGAAGTA", "PBM 8-mer E-score": 0.0571},
      {"sequence": "ACCCACCT", "PBM 8-mer E-score": -0.0645},
      {"sequence": "AGTCGAAT", "PBM 8-mer E-score": -0.00918},
      {"sequence": "AGGTGGGC", "PBM 8-mer E-score": -0.177},
      {"sequence": "AACCGTTC", "PBM 8-mer E-score": 0.0958},
      {"sequence": "CCTGTCAC", "PBM 8-mer E-score": -0.191},
      {"sequence": "GAGAAGTA", "PBM 8-mer E-score": 0.233},
      {"sequence": "ATTGCACA", "PBM 8-mer E-score": 0.0198},
      {"sequence": "CGCACGAC", "PBM 8-mer E-score": -0.192},
      {"sequence": "CGGGGAGC", "PBM 8-mer E-score": -0.222},
      {"sequence": "CGTCACAG", "PBM 8-mer E-score": -0.0835},
      {"sequence": "ACGCACAC", "PBM 8-mer E-score": -0.00993},
      {"sequence": "AGTGTGAT", "PBM 8-mer E-score": 0.2},
      {"sequence": "ATAAGCGA", "PBM 8-mer E-score": 0.0934},
      {"sequence": "AGTTCCTA", "PBM 8-mer E-score": 0.0429},
      {"sequence": "AGCACCCA", "PBM 8-mer E-score": -0.0415},
      {"sequence": "ATACGAAC", "PBM 8-mer E-score": 0.0915},
      {"sequence": "GAGGGGGA", "PBM 8-mer E-score": -0.327},
      {"sequence": "CTCCCAGA", "PBM 8-mer E-score": -0.0893},
      {"sequence": "GCCATGGC", "PBM 8-mer E-score": -0.151},
      {"sequence": "ACAGAAGC", "PBM 8-mer E-score": -0.122},
      {"sequence": "AAACTACA", "PBM 8-mer E-score": 0.162},
      {"sequence": "CATCGAAC", "PBM 8-mer E-score": -0.0585},
      {"sequence": "ACGGCAGA", "PBM 8-mer E-score": -0.166},
      {"sequence": "ACTGATCG", "PBM 8-mer E-score": -0.0977},
      {"sequence": "GCCTGGGA", "PBM 8-mer E-score": -0.285},
      {"sequence": "ATAATGCG", "PBM 8-mer E-score": 0.271},
      {"sequence": "GGCTCCCC", "PBM 8-mer E-score": -0.418},
      {"sequence": "CGGGATAC", "PBM 8-mer E-score": -0.0729},
      {"sequence": "ATCATGTG", "PBM 8-mer E-score": -0.103},
      {"sequence": "AACTTAGT", "PBM 8-mer E-score": 0.289},
      {"sequence": "CTACAAAG", "PBM 8-mer E-score": -0.188},
      {"sequence": "CATGTCCA", "PBM 8-mer E-score": -0.00463},
      {"sequence": "CTACCCAA", "PBM 8-mer E-score": -0.132},
      {"sequence": "GTCGCGCA", "PBM 8-mer E-score": -0.104},
      {"sequence": "CATTCAGC", "PBM 8-mer E-score": -0.199},
      {"sequence": "AAGGGCAA", "PBM 8-mer E-score": 0.0932},
      {"sequence": "ATACCCCG", "PBM 8-mer E-score": -0.126},
      {"sequence": "AGTGACAG", "PBM 8-mer E-score": -0.17},
      {"sequence": "GATCAGAA", "PBM 8-mer E-score": -0.00247},
      {"sequence": "ACAGCGTA", "PBM 8-mer E-score": -0.193},
      {"sequence": "GAAGGACA", "PBM 8-mer E-score": -0.0699},
      {"sequence": "ACTCTACG", "PBM 8-mer E-score": -0.125},
      {"sequence": "AGTTTCTC", "PBM 8-mer E-score": 0.115},
      {"sequence": "AAATGTAA", "PBM 8-mer E-score": 0.373},
      {"sequence": "GGCCTGAA", "PBM 8-mer E-score": -0.182},
      {"sequence": "GGAAACCA", "PBM 8-mer E-score": -0.073},
      {"sequence": "CAATCAAC", "PBM 8-mer E-score": 0.116},
      {"sequence": "ACTTGTCG", "PBM 8-mer E-score": -0.114},
      {"sequence": "CCGCTTGA", "PBM 8-mer E-score": -0.147},
      {"sequence": "ACCCGACC", "PBM 8-mer E-score": -0.189},
      {"sequence": "GATCGACC", "PBM 8-mer E-score": -0.209},
      {"sequence": "TAGGGCAA", "PBM 8-mer E-score": -0.0392},
      {"sequence": "CAGTCATA", "PBM 8-mer E-score": -0.0943},
      {"sequence": "ATAATGTA", "PBM 8-mer E-score": 0.401},
      {"sequence": "CAGTGTTA", "PBM 8-mer E-score": 0.14},
      {"sequence": "AACAGGCG", "PBM 8-mer E-score": -0.0218},
      {"sequence": "GCGTGGCA", "PBM 8-mer E-score": -0.0664},
      {"sequence": "CATGGACA", "PBM 8-mer E-score": -0.0229},
      {"sequence": "CAGCTATG", "PBM 8-mer E-score": -0.165}
    ]}
  ]
}
